The list shows a part of the results. Viral Rep nickase domains cut single-stranded DNA in vitro at 3 µM enzyme and 37 °C for 1 h; the strands have 90 letters, of which the middle is given. Uncut reads are compared with the no-enzyme pool on a log2 scale; uncut sequences lie near 0, cut ones below; no hit call is given. Reads are scaled to the total; uncut strands gain when others are lost, and binding without cutting may add a little.
tested on: T1, Rep nickase domain of tomato golden mosaic virus; experiment: uncleaved DNA left, log2 of reads against the no-enzyme library (log2 ratio); higher = less cleavage (more negative = more Rep cleavage of the k-mer); sequences stand for … in CTCGTCCG…ACCGGAGA
T1 sequence (Rep 1-124, printed without the tag): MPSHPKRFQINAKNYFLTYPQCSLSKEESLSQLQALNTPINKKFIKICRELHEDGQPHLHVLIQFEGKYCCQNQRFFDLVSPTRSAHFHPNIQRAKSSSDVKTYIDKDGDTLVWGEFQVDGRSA
Protocol: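 A pool of 90-nt single-stranded DNAs with seven random bases just before the constant AC of the nick site (name = the seven bases) was cut by 3 µM recombinant His6-SUMO-tagged Rep nickase domain (300 nM DNA, 50 mM HEPES pH 8.0, 50 mM NaCl, 1 mM MnCl2, 1 h, 37 °C, three replicates). Uncut DNA was amplified and sequenced.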

Row | Sequence | uncleaved DNA left (log2)
1 | CGAAATT | 0.0856
2 | CTTCTAT | 0.102
3 | TTTATGA | -0.0305
4 | TGGTACC | -0.241
5 | ACCTGAA | 0.0642
6 | TCATTCC | -0.0658
7 | GTAGAGT | 0.00787
8 | TCCATAA | 0.129
9 | TCTCTTA | 0.0923
10 | CGTCACC | -0.132
11 | GTATTAA | 0.233
12 | CAGGCAT | 0.127
13 | TATTTAC | 0.0599
14 | CCATCGA | 0.0143
15 | AGTGTAT | 0.0682
16 | AGTTTAA | 0.0797
17 | GGAACTA | -0.0291
18 | TATGCTA | 0.0324
19 | TCACTCT | -0.0402
20 | AGTCCAG | 0.104

Row | Sequence | uncleaved DNA left (log2)
21 | CTACTAC | -0.112
22 | AGGCCGA | 0.0173
23 | TTTGAAC | -0.0789
24 | GTTACAT | 0.0151
25 | AACTTAT | 0.0299
26 | TGTCAAG | -0.124
27 | CGCCCGA | -0.0547
28 | CTCCCCT | -0.00292
29 | TCCGCTC | -0.163
30 | TTGCTCC | -0.214
31 | TATTACG | -0.135
32 | TTTTCCC | -0.155
33 | TGCACCG | 0.105
34 | ATATGGC | -0.00278
35 | AGCAGGG | 0.146
36 | TTTTAAG | 0.0897
37 | TTTGCAG | 0.027
38 | GATGTCA | 0.147
39 | TCCGGAT | 0.086
40 | CGATCAA | -0.0528

Reference: the supplement of paper PMC7826260
